# Source: the supplement of paper PMC11417369
# The list shows a part of the results.
# System: PfSIP2 AP2 domain 1 (GST-tagged)
# Experiment: gcPBM binding intensity (ln(normalized median fluorescence intensity)); higher = stronger DNA binding
# Method in brief: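 DNA-binding domains from P. falciparum, fused to GST and produced in E. coli, were put on an Agilent 4 × 180k double-stranded probe array for 1 h in 1× PBS holding 1% milk, 0.2 mg/ml BSA, 0.5% salmon testes DNA and 0.03% Triton X-100. Probes were primer-extended, 36 bp long and drawn from intergenic genomic regions, with negative controls included. After Alexa488 anti-GST antibody detection and a 488 nm scan, binding intensity was set as the highest Masliner-normalised natural-log median intensity across replicate spots of either probe orientation.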
row,Sequence,gcPBM binding intensity (ln)
1,GTATTATAGTATAATACACACCCAAATATTAAAAAG [CACACA_site7404],7.04
2,CGTTATATATGTATTACATGCAATATATGTACGTAA [TGCATGCA_site274],6.8
3,TAAATAATATCCCTTTGTACGTATTTTTTTTTATTA [XGTACX_site7303],6.84
4,GAAATAAGTTAAAATAGTACGTAGTGTTCCTTAAGT [XGTACX_site6557],6.94
5,TTAGGAAAACAAAAATGTACGCATATATATTATTGA [XGTACX_site8288],6.98
6,TTAAAAATAATATATTGTACACATACTTATTTTAAT [XGTACX_site1348],7.2
7,GTGCATATACAAATATGTACTTAAACGTTTTTTTTT [XGTACX_site7362],8.99
8,TTTTTCTTTTGATGTTGTACATATATATCATATAAT [XGTACX_site1189],7.12
9,GTTTATTCATCATACGGTACACATAAATAATATATA [XGTACX_site6931],7.39
10,AAGACTTCTCCATATACACACACCAACAAATATAAA [CACACA_site2779],7.21
11,GATGAATAAATCAAAGCACACATACACCCACATATA [CACACA_site7986],7.19
12,TTCGTTTAAATCAAGTGTACATATTATATATAATAT [XGTACX_site7599],7.29
13,ATTTTTTTTTTTTTTTTTTGGTTTTCTTTAGGAGTT [CACACA_negctrl_site1258],6.9
14,GTATATATTTTTATTTAATAATTTGTTTATTTATTC [CACACA_negctrl_site647],6.95
15,CATACATATACATACAGTACATATTTTTTGTCAATT [XGTACX_site7357],7.22
16,AACGAAAACACTACGTGTACCAAACGTCCTACTAAC [XGTACX_site4915],6.9
17,TTATATGGCTCCATTTGTACGCATCCATGTTTTTAT [XGTACX_site6590],6.99
18,AAAAAAAAAAAAAAAGCACACATCATATTATAATTC [CACACA_site3355],7.54
19,AAAAAAACATAACAAAATGAAACAAAACAAAAAGAA [GTGCAC_negctrl_site577],7.28
20,AGTTATTAAAAATGTGCATGCAATGGTTTCTCTTAA [TGCATGCA_site634],7.52
21,ATTTATAATGATTTTTTTAGTAATCTTGTTATTTTT [XGTACX_negctrl_site373],6.68
22,AGGAGGTCAGTTCACAGTACCCAGAAACTCTACGAG [XGTACX_site2006],6.65

row,Sequence,gcPBM binding intensity (ln)
1,TCTTTTTTTTCTTTTTTTTTATTTAAATATCAAGTA [CACACA_negctrl_site1354],6.73
2,GTATGTATATATATATGTACATACTGTTTATCGTTA [XGTACX_site6168],6.94
3,TTTTAATAAATATACACACACAAAAAAAAAAAAAAA [CACACA_site3971],7.15
4,TTTCACTTTTTCCAAAGTACATATATAAAAATTAAT [XGTACX_site6947],7.05
5,ATATAAAAAAAAAAAAGTACACATAAACAAATGCAT [XGTACX_site4241],7.03
6,AGATTATAAAATTCTACACACATATATACATATATA [CACACA_site3485],6.86
7,GACCAATTCAAATATGCACACAAATTTGAAAACGAT [CACACA_site9202],7.58
8,AATATATAGAAACACACACACAAAAAAAAAAAAAAA [CACACA_site1326],6.92
9,AATAAAAAGACATTCACACATATATATTATTTATAT [CACACA_site5936],7.12
10,TTAAAATATAATATTCGTACTTATTCAAAAGAAAAA [XGTACX_site2122],6.75
11,ATATGTAGAAGTAATGCACACATATGTATATATATA [CACACA_site8796],8.38
12,ATAATGTAAAAGTAAACACACACATATATATATACA [CACACA_site8793],7.06
13,GTCTTAAAAATTAAAACACACGTTCACTTTCATATT [CACACA_site5803],7.39
14,TATATATATATATAATGTACATATATATAATATACA [XGTACX_site1552],9.25
15,ATTTCTACTAAAAATACACACGATGATACAACGAAG [CACACA_site1755],6.95
16,AATTAATAACAAAATAAACACACATATATAAATACA [CACACA_site8456],6.96
17,TATATTTAGATATATACACACATTAGCATTTTCATA [CACACA_site6902],6.83
18,CTAATGATCATATATACACACACACTAATAAAAAAA [CACACA_site9329],7.11
19,AAAGAATTTGCATATACACACAAAAAGATATATACA [CACACA_site6318],6.9
20,CATAATACAGATAACACACACAATTATACATAAAAT [CACACA_site5742],7.07
21,AGGAGGTCAGTTCACAGTACCCAGGAAATCTACGGA [XGTACX_site2552],6.52
22,AAAAATAAAATAAAGAAGGAAAATAAAAAAATAAGG [CACACA_negctrl_site1811],7.3

row,Sequence,gcPBM binding intensity (ln)
1,AAACATAAGAGACACACACACATATATAAATAAATA [CACACA_site7674],7.14
2,AATTTCATAAATATAACTGAGAATAAATAAACAAAG [GTGCAC_negctrl_site146],7.18
3,CCTGTAAATAAATATAAATACATATTTCTAATATAT [GTGCAC_negctrl_site21],6.96
4,TTTCAAAAAAATAATGTGCACATTAGAAAATAAATA [GTGCAC_site9416],8.53
5,ACCTCATAATATTTAACACACAAAATTAAATGTATG [CACACA_site6898],7.13
6,ACATATATTTAAAAATGTACTTACATATATTTTTTA [XGTACX_site6050],6.96
7,GAAGTATTTATTTATGCATGCAAATATACAAAAAAA [TGCATGCA_site975],7.2
8,TTTTATACATATTTTACACACTAAAATATACATATA [CACACA_site324],7.23
9,TTATGTTGTAAATGCACACATACATAAACTCAGTTT [CACACA_site5639],7.71
10,ATAAAATAAATATTTTGTTATTTATTTAATCTAATA [XGTACX_negctrl_site404],6.62
11,TAAATATTTTTAGATGCATGCAATAATTACCCAAAG [TGCATGCA_site636],7.36
12,TTATTATTATTACTAGTGCATTAATTATATATGTAA,8.8
13,TTTTTTTTTTCTGAAAGTACTAATTTCCTGGAGGAA [XGTACX_site759],6.78
14,ATATTTCTGTCAAGCACACATAATATTAAAATATGT [CACACA_site4330],7.04
15,ATTTAGAAAAATAAAACACACATATAGATGTAAATA [CACACA_site7853],6.81
16,TCATATTATAATGTGAGTACATATAATAAATAAGTT [XGTACX_site2470],7.03
17,ATGTTTGTCTATAGCTGTACCTATTTATAAAACGTA [XGTACX_site7157],7.03
18,TTAATATGATATATATATATATATATATATATATAT [CACACA_negctrl_site683],9.01
19,GTAAAAATTTTAAATACATGCAAGCGATTAATATGA [TGCATGCA_site80],6.83
20,GTATATATGTATATATGTACATATATACATTTTGTT [XGTACX_site7320],7.35
21,CGTTAAAGGGAATGTATACACACGTTTCTCTATGTT [CACACA_site1198],6.82
22,TTAAATAATATTAAATGTACATATTATTATGATATA [XGTACX_site6189],6.89

row,Sequence,gcPBM binding intensity (ln)
1,TATATATTTAACAATCGTACATATTTACAAATATAA [XGTACX_site2131],6.88
2,TTATAACAACTGGAATGATTAACAATAAATATTAAA [CACACA_negctrl_site1723],6.72
3,AGGAGACTTAAAAAAAGTACAAAAAAAAAAAAAAGC [XGTACX_site1576],7.23
4,TATACATATATAAATGCATGTTGATATTAATAGTTA [TGCATGCA_site639],7.03
5,ACAGAAAAAAAACACACACACATAATATACATACAT [CACACA_site1932],7.15
6,TATTTTTTTTTCTTTTTATATATAATAATCTTCATT [GTGCAC_negctrl_site80],6.86
7,TTTTTTTTTTTTTTTTGTACGTATCAAAAAATTTGT [XGTACX_site1023],7.19
8,AAAAATAAATTTAGTTGTACTTTATTATTTTAAATA [XGTACX_site3067],6.83
9,AATCAATAAATAAAAACATGCATATATATATATATA [TGCATGCA_site438],9.52
10,CATTAATAAAAAAAAAGTACAAAAAATATATATATT [XGTACX_site2091],7.1
11,AAAATAAAAATATTCACACATACAAAAATTATACAA [CACACA_site5136],6.99
12,ATTTTTTTACTGTAACCATATTTTTCCCTTTTATTC [CACACA_negctrl_site1143],6.94
13,ATAATATATATATATAGTACATATATATAATATTCT [XGTACX_site2445],7.07
14,AAGAAAAACTTTACGTGTACCAAACATCCTGCCAAC [XGTACX_site598],6.97
15,ATAGACAGCGCACAAACACACAAACACCCACCCACA [CACACA_site8043],7.3
16,AGTGATACTAATTTTTGTACGCATAAAAGAATATTC [XGTACX_site6055],6.97
17,TATATTGATGATGATAGTACGTATGATTAGAAAAAA [XGTACX_site8989],7.27
18,AAAAAAAAAAAAATACGTACATACATACCTACATAT [XGTACX_site233],7.21
19,TATATATATATGTGTACACAATTTATCTGTATTTAT [CACACA_site5945],9.28
20,GAATAATATATATATTGTACTTTTTATTTATATTAT [XGTACX_site3180],7.16
21,AAAATATAATATAATGCACACATAAAACAAAAAAAA [CACACA_site8989],7.38
22,AAAAAAAAATTAATATATAAAAGGATATATATATAT [GTGCAC_negctrl_site449],8.95
